The record followed here is paper PMC6304311 (Influenza and Other Respiratory Viruses, 2018).

The assay relates to influenza virus isolates from SARI patients [A(H1N1)pdm09, influenza B, A(H3N2)]. The class given is biochemical.

In the case of `CCOC(=O)C1=C[C@@H](OC(CC)CC)[C@H](NC(C)=O)[C@@H](N)C1` [oseltamivir], the “susceptibility of isolates from SARI cases” value is recorded as “susceptible”.
